For this series, the system named is ATP. Description: switch fluorescence ratio, 500 uM ATP over buffer (Cy3 cluster intensity, sum of 5 cycles each) (fold (ratio)); higher = stronger signal-on switching upon ATP binding; sequences stand for … in TCGTCGGCAGCGTCAGATGTGTATAAGAGACAGTTTTTTTTTTTTTTTTTTTTTTTTT…TC. The following applies: aptamer strand: ATP DNA aptamer (quencher-CACCTGGGGGAGTATTGCGGAGGAAGG + anchor), 100 nM annealed; ATP concentration: 500 uM; one replicate. In short, it runs like this:
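Imaging in selection buffer was followed by imaging after 15 min with 500 uM ATP at 22 °C, for Cy3-labelled switching-strand clusters annealed to 100 nM quencher-labelled ATP aptamer on a modified Illumina MiSeq flow-cell. Five of these buffer/ATP cycles ran, separated by NaOH stripping and re-annealing. The fluorescence ratio per cluster is summed target-cycle over summed buffer-cycle Cy3 intensity, averaged per switch-domain sequence; clusters outside 100-1000 RFU were removed.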

Sequences with one replicate were seen in a single cluster, so their values are uncertain.

Experimental findings from the supplement of paper PMC10126150 are described below.
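Also: ATP exposure 15 min at 22 °C before imaging.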

Regarding TATCTTGGGT, the switch fluorescence ratio was 1.

Regarding TTCCGATTTA, the switch fluorescence ratio worked out at 0.98.

Turning to TTTCGTAAGT, the switch fluorescence ratio is 1.02.

Consider GAAGCAAATA, for which the switch fluorescence ratio came out at 3.18.

Regarding CTTCTAAGCT, the switch fluorescence ratio stood at 1.03.

For the sequence TACATTGAGC, the switch fluorescence ratio turned out to be 1.05.

As to GGTCACTATG, the switch fluorescence ratio turned out to be 1.01.

With GGTTAATTAT, the switch fluorescence ratio is 1.01.

As for ACTTCGCTTA, the switch fluorescence ratio is 3.21.

Take AAGGTCTGGA: the switch fluorescence ratio is 0.916.

For the sequence TATAATTAGC, the switch fluorescence ratio stood at 0.984.

For GGAGTTGGAG, the switch fluorescence ratio came to 1.01.

Take GTGAACGGAC: the switch fluorescence ratio amounted to 1.2.

As for GGAAACATTG, the switch fluorescence ratio came out at 1.03.

In the case of GCGATGAGGT, the switch fluorescence ratio was found to be 1.02.

Consider CCTGTTTCGT, for which the switch fluorescence ratio stood at 0.954.

Turning to ACGTTCCGAA, the switch fluorescence ratio worked out at 1.38.

Take TCCGAGGTCG: the switch fluorescence ratio came out at 1.08.

With TGCTATTAGC, the switch fluorescence ratio worked out at 1.01.

As for TCTAGAGTAG, the switch fluorescence ratio worked out at 0.978.

With CAGTTAGCG, the switch fluorescence ratio came to 0.981.

With TAGTGTTAAC, the switch fluorescence ratio amounted to 1.03.

On to TACGTAGTTT, for which the switch fluorescence ratio is 0.998.

With GACGGTGAGG, the switch fluorescence ratio was 0.979.

In the case of GACGCGTCGT, the switch fluorescence ratio amounted to 1.

For CATTCTGATA, the switch fluorescence ratio turned out to be 1.01.

In the case of AGAGATGGGC, the switch fluorescence ratio worked out at 0.98.

Consider CGTGTATTTA, for which the switch fluorescence ratio was found to be 0.987.

For TCGAGATCGG, the switch fluorescence ratio is 0.954.

As for GGTCCATTTA, the switch fluorescence ratio came out at 0.98.

Consider TCTAAAATTG, for which the switch fluorescence ratio was 1.01.

Take TTGAAGTATT: the switch fluorescence ratio amounted to 0.966.

For the sequence TGGTAACTAT, the switch fluorescence ratio worked out at 1.49.

Regarding TGTGAAAAT, the switch fluorescence ratio amounted to 1.01.

AAAAAAAACA: the switch fluorescence ratio came out at 0.982.

Regarding ACTACTATTT, the switch fluorescence ratio amounted to 0.98.

Turning to CATGGATCTT, the switch fluorescence ratio amounted to 1.01.

GTAGTACTTT: the switch fluorescence ratio was determined as 1.02.

For CGCAGGGGTA, the switch fluorescence ratio came to 1.08.

As to GCGAGGATGT, the switch fluorescence ratio was found to be 1.01.

Regarding GAGTTATATC, the switch fluorescence ratio stood at 1.04.

In the case of ATAGACTGAA, the switch fluorescence ratio amounted to 1.02.

With TCTATTATAT, the switch fluorescence ratio is 1.06.

As for CTGATAGTTT, the switch fluorescence ratio stood at 0.99.

Take ATTATTAAAG: the switch fluorescence ratio stood at 1.04.

Take GCTACGGTCG: the switch fluorescence ratio was 1.04.

Turning to CGTTCGCTGA, the switch fluorescence ratio was determined as 1.41.

On to CGAGATACGG, for which the switch fluorescence ratio stood at 1.16.

For TGAAAATGCC, the switch fluorescence ratio came to 0.947.

Regarding AAATTGTCGC, the switch fluorescence ratio worked out at 0.99.

For the sequence GGAGGGAAGT, the switch fluorescence ratio is 1.

Take AGGTCATTCT: the switch fluorescence ratio amounted to 0.978.

On to TGTACGATTC, for which the switch fluorescence ratio stood at 0.968.

With GCTTTCGATT, the switch fluorescence ratio was 0.987.

Consider GGGGTGAAAG, for which the switch fluorescence ratio was 0.982.

TCCCTTGCAG: the switch fluorescence ratio amounted to 1.09.

For CAGACATGCT, the switch fluorescence ratio was found to be 1.04.

Consider GGTATCCTTT, for which the switch fluorescence ratio was 0.967.

With GGCCAACGAG, the switch fluorescence ratio stood at 1.04.

Take AATGAAAGTG: the switch fluorescence ratio worked out at 0.94.

Take CTATTGAGGA: the switch fluorescence ratio amounted to 1.

Consider TTAGAAATTC, for which the switch fluorescence ratio was found to be 1.18.

Regarding ATGATCAGTA, the switch fluorescence ratio came out at 0.971.

Turning to TGTCCCCGT, the switch fluorescence ratio stood at 0.999.

On to ATAGTTCTTA, for which the switch fluorescence ratio was determined as 0.98.

As to CAACGACGGG, the switch fluorescence ratio was 1.06.

In the case of TCTATCAGAC, the switch fluorescence ratio turned out to be 0.993.

As for TTGGTGGCCC, the switch fluorescence ratio turned out to be 0.971.

For CTTTGCTTGT, the switch fluorescence ratio worked out at 0.988.

As to GGTTGAGTTT, the switch fluorescence ratio came out at 0.939.

CCTAAACTTG: the switch fluorescence ratio amounted to 1.

As for ACGCGAGCGT, the switch fluorescence ratio was 1.01.

In the case of AACACTGCGT, the switch fluorescence ratio was 1.02.

GGGAGGGGAC: the switch fluorescence ratio turned out to be 1.01.

Take GCTGGAAGTG: the switch fluorescence ratio was 0.998.

As to CGGTGGCCGC, the switch fluorescence ratio is 0.966.

On to GATCTTTCGG, for which the switch fluorescence ratio turned out to be 0.936.

Take TAGGCGTAAG: the switch fluorescence ratio is 1.03.

CTCTCCGAAT: the switch fluorescence ratio worked out at 2.95.

As to TTGGTACGAC, the switch fluorescence ratio came to 1.03.

As to AGTTACGCAC, the switch fluorescence ratio turned out to be 1.86.

Consider CACTTAGGCG, for which the switch fluorescence ratio worked out at 1.02.

Consider GTGTTTTGCG, for which the switch fluorescence ratio was 0.977.

As to CAATACAGGA, the switch fluorescence ratio is 1.05.

As to CGTAATAGGT, the switch fluorescence ratio is 1.06.

Consider CGCATTGCAT, for which the switch fluorescence ratio amounted to 1.07.

As to CGTTGTAAGC, the switch fluorescence ratio came out at 1.03.

As to AAGTTGGGTC, the switch fluorescence ratio was 0.996.

Regarding TGGTCCAATC, the switch fluorescence ratio was 0.999.

For AACAGCGTCT, the switch fluorescence ratio turned out to be 1.05.

As for CAATGAACAA, the switch fluorescence ratio stood at 0.988.

As to CATGCTACTA, the switch fluorescence ratio is 1.06.

Regarding TCGTAATATT, the switch fluorescence ratio stood at 1.2.

For the sequence TGCTACCGTT, the switch fluorescence ratio amounted to 0.973.

Take TGCGACCGGA: the switch fluorescence ratio was determined as 1.02.

In the case of AGGCGTCAG, the switch fluorescence ratio is 0.954.

Turning to CATATAGGTT, the switch fluorescence ratio stood at 0.95.

In the case of AAGCCTTCTG, the switch fluorescence ratio was determined as 1.04.

In the case of CGAGAAAAGA, the switch fluorescence ratio came to 0.986.

For ACCGCAAACA, the switch fluorescence ratio was 3.35.

On to ATCCTTCTGT, for which the switch fluorescence ratio was determined as 1.06.

For the sequence AGGTTATACA, the switch fluorescence ratio was found to be 1.02.

On to GCGCAAGGCG, for which the switch fluorescence ratio came to 1.07.

With TGGTAGGCT, the switch fluorescence ratio was 0.957.

As to GGCCCGTCAG, the switch fluorescence ratio was found to be 0.976.

Take AATGTTGGC: the switch fluorescence ratio was found to be 1.02.

As to GCCCTTCACC, the switch fluorescence ratio was found to be 1.08.

For GGCGGTGTCA, the switch fluorescence ratio worked out at 0.965.

For the sequence CCCCTATGCT, the switch fluorescence ratio was 1.16.

On to GGCACCAAAT, for which the switch fluorescence ratio was 0.999.

On to AGCGGAGCTA, for which the switch fluorescence ratio was determined as 1.

With TCAGAGTTTT, the switch fluorescence ratio was 0.97.

With GGTGTCGCTT, the switch fluorescence ratio was found to be 0.973.

With CGGCGCATAG, the switch fluorescence ratio was found to be 4.19.

TTGGCTCAGC: the switch fluorescence ratio turned out to be 1.02.

As for TAAGTATGG, the switch fluorescence ratio was 1.

For ACAAATGAG, the switch fluorescence ratio was 1.04.

As for GTCGTTGGAC, the switch fluorescence ratio is 0.992.

TTCTGAATCA: the switch fluorescence ratio turned out to be 0.972.

Turning to GACATGCTAG, the switch fluorescence ratio came to 1.02.
